Experimental data: PubChem BioAssay AID686971 (National Center for Advancing Translational Sciences (NCATS), 2013)
Among all 360,000 compounds or so, about 7,500 (2.1%) were called active. Inconclusive means that the source gave no clear call. Such entries were picked first, then a sample of the others. Calls follow the shape of the dose curve; as a rule, active = well fitted cell-killing curve with a large enough effect; inconclusive = small, poorly fitted or top-dose-only effect, or effect the other way, or another doubt; inactive = no such curve, though single readings can be large or run the other way. No potency is given beside an inconclusive call; the fits are too rough.

assay: qHTS for induction of synthetic lethality in tumor cells producing 2HG: qHTS for the HT-1080-IDH1KD cell line; conditions: HT-1080 IDH1 knockdown viability, ATP luminescence, 48 h; series mostly up to 46.1 µM
In short: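 Viability of IDH1-knockdown HT-1080 fibrosarcoma cells was assessed by CellTiter-Glo after 48 h at 37 °C with titrated compound; concentration-effect curves were classified by fit quality and response size.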
Potency is read from the fitted curve at half-maximal effect; tags tell the direction and shape of the fitted curve.

Q: Which Potency does the source give for `CN1C2CCC1/C(=C\c1ccccc1)C(=O)/C2=C\c1ccccc1` here?
A: The Potency was inconclusive [cytotoxic, single point].

Q: Which Potency does the source give for `O=c1cc(-c2ccccc2)cc(-c2ccccc2)n1O` here?
A: Its Potency is inconclusive [cytotoxic, partial curve].

Q: Which Potency does the source give for `C(=N\Nc1nc2ccccc2s1)/c1cccs1` here?
A: The Potency was active: 11.2 µM.

Q: For `NC(=O)c1ccc(NC(=O)COC(=O)c2c3c(nc4ccccc24)/C(=C\c2ccc4c(c2)OCO4)CCC3)cc1`, which Potency is on record?
A: The Potency was inconclusive [cytotoxic, single point].

Q: For `Cc1cc2nc(-c3cccnc3SCC(=O)NCc3ccco3)[nH]c2cc1C`, which Potency is on record?
A: The Potency was active: 10 µM.

Q: With `O=C(Cc1ccc([N+](=O)[O-])cc1)Nc1ccc2c(c1)C(=O)NC2=O` as the compound, how does the Potency read?
A: Its Potency is inconclusive [cytotoxic, single point].

Q: With `C[C@@H]1CN([C@H](C)CO)C(=O)c2c(c3ccccc3n2C)-c2ccccc2CO[C@H]1CN(C)Cc1ccc(C(F)(F)F)cc1` as the compound, how does the Potency read?
A: Its Potency is active: 18.4 µM.

Q: Which Potency does the source give for `Cc1ccc(CSc2nnc(-c3cccnc3)n2N)cc1` here?
A: Its Potency is “inactive”.

Q: Which Potency does the source give for `C=CCc1c(C)nc(-c2ccccc2)nc1Nc1ccc(O)cc1` here?
A: The Potency was inconclusive [cytotoxic, single point].

Q: For `Cc1ccc(C(=O)NC(=S)N2CC(C)OC(C)C2)cc1[N+](=O)[O-]` (stereo not given), which Potency is on record?
A: Its Potency is active: 2.82 µM.

Q: Which Potency does the source give for `C=CC[C@H](CC(=O)N(CCO)Cc1ccccc1)C(=O)NC[C@@H](OC(=O)[C@@H](CC=C)Cc1ccc(F)cc1)c1ccccc1` here?
A: The Potency was inconclusive [cytotoxic, single point].

Q: With `Cc1cccc(NC2=C/C(=N/S(=O)(=O)c3cccs3)c3ccccc3C2=O)c1` as the compound, how does the Potency read?
A: Its Potency is active: 3.26 µM.

Q: For `Fc1ccc(Sc2ccccc2CNC2=NCCN2)cc1`, which Potency is on record?
A: The Potency was inconclusive [cytotoxic, partial curve].

Q: For `CCc1c(C)sc2nc3c(C(=O)N4CCOCC4)cc(C(=O)c4cc(F)ccc4O)cn3c(=O)c12`, which Potency is on record?
A: The Potency was inconclusive [cytotoxic, partial curve].

Q: Which Potency does the source give for `COC(=O)[C@@]1(Cc2ccc(F)cc2)[C@H]2c3cc(C(=O)N(C)C)n(CCCNc4ncc(C(F)(F)F)cc4Cl)c3C[C@H]2CN1C(=O)c1ccccc1` here?
A: The Potency was inconclusive [cytotoxic, single point].

Q: Which Potency does the source give for `Cc1cc2c3c(c1)C1(C(=O)N3C(C)(C)CC2C)C(C#N)=C(N)Oc2n[nH]c(C)c21` (stereo not given) here?
A: The Potency was inconclusive [cytotoxic, single point].

Q: With `O=C(O)c1cc([N+](=O)[O-])c(N2CCCC2)c([N+](=O)[O-])c1` as the compound, how does the Potency read?
A: Its Potency is “inactive”.

Q: With `CC(Cl)C(=O)Nc1ccccc1C#N` (stereo not given) as the compound, how does the Potency read?
A: The Potency was “inactive”.

Q: For `O=C(NCN1CCN(c2ccccc2F)CC1)c1ccccc1`, which Potency is on record?
A: Its Potency is “inactive”.

Q: For `Cc1nonc1OCCN1CCN(c2ccccc2[N+](=O)[O-])CC1`, which Potency is on record?
A: The Potency was “inactive”.

Q: Which Potency does the source give for `CC(C)CNC(=S)N1CCC(c2nc(-c3ccc(F)cc3)no2)CC1` here?
A: Its Potency is inconclusive [cytotoxic, single point].

Q: With `S=C(NCc1ccccc1)NCc1ccccc1Cl` as the compound, how does the Potency read?
A: Its Potency is inconclusive [cytotoxic, single point].

Q: With `CC(C)(CN1CCc2ccccc2C1)NS(=O)(=O)c1ccccc1` as the compound, how does the Potency read?
A: The Potency was “inactive”.

Q: For `Cc1ccc(-n2c(=O)c3c4c(sc3n(Cc3cc(=O)n5ccccc5n3)c2=O)CCC4)cc1C`, which Potency is on record?
A: Its Potency is “inactive”.

Q: For `COc1ccc(OC)c(C2CC(c3ccccc3)=NN2C(=S)Nc2ccccc2)c1` (stereo not given), which Potency is on record?
A: Its Potency is inconclusive [cytotoxic, partial curve, poor fit].

Q: With `CCOC(=O)C1=C(C)N=c2s/c(=C\c3ccc(C(=O)O)cc3)c(=O)n2C1c1ccc(OC)cc1OC` (stereo not given) as the compound, how does the Potency read?
A: The Potency was “inactive”.

Q: With `CCOC(=O)c1cccc(NC(=O)Nc2ccc3c(c2)C(=O)OC3)c1` as the compound, how does the Potency read?
A: The Potency was “inactive”.

Q: Which Potency does the source give for `CCCCCc1cc(=O)oc2c(C(CCN3CCCC3)c3cc(OC)c(OC)c(OC)c3)c(OC)cc(OC)c12` (stereo not given) here?
A: Its Potency is inconclusive [cytotoxic, single point].

Q: Which Potency does the source give for `COc1cc([N+](=O)[O-])ccc1NC(=S)Nc1cccc(C(=O)O)c1` here?
A: The Potency was inconclusive [cytotoxic, single point].

Q: For `Cc1cc(C)cc(NC(=S)N2CCC(c3nc4ccccc4s3)CC2)c1`, which Potency is on record?
A: Its Potency is inconclusive [cytotoxic, single point].

Q: Which Potency does the source give for `Cc1ccc(NC(=O)C2CCN(S(=O)(=O)c3ccc4c(c3)NC(=O)C(C)S4)CC2)c(Cl)c1` (stereo not given) here?
A: Its Potency is inconclusive [cytotoxic, single point].

Q: Which Potency does the source give for `CSc1nnc2c3ccccc3n(CCc3ccccc3)c2n1` here?
A: The Potency was inconclusive [cytotoxic, partial curve].

Q: For `COCc1ccc(C(=O)N2CCCC(CCC(=O)NCc3ccccc3F)C2)o1` (stereo not given), which Potency is on record?
A: Its Potency is inconclusive [cytotoxic, partial curve, poor fit].

Q: With `CCN(CC)c1ccc(/C=N/NC(=O)CNC(=O)C2COc3ccccc3O2)c(O)c1` (stereo not given) as the compound, how does the Potency read?
A: The Potency was inconclusive [cytotoxic, full curve].

Q: Which Potency does the source give for `CCOc1ccc2[nH]cc(C(=O)N3CCN(C4CCCCC4)CC3)c(=O)c2c1` here?
A: Its Potency is “inactive”.

Q: Which Potency does the source give for `O=C(N/N=C/C1CC=CCC1)c1cc(-c2cccnc2)nc2ccccc12` (stereo not given) here?
A: Its Potency is “inactive”.

Q: With `Cc1ccc(CN(C(=O)Cn2nnc3ccccc32)C(C(=O)NCc2ccco2)c2cccs2)cc1` (stereo not given) as the compound, how does the Potency read?
A: The Potency was “inactive”.

Q: Which Potency does the source give for `Cn1cc(S(=O)(=O)N2CCOCC2)cc1C(=O)O` here?
A: Its Potency is “inactive”.

Q: With `CCOC(=O)N1CCN(C2CCCN(C(=O)c3ccccc3N(C)C)C2)CC1` (stereo not given) as the compound, how does the Potency read?
A: Its Potency is “inactive”.

Q: Which Potency does the source give for `CN(C)CCCN(C(=O)c1ccc(C(=O)c2ccccc2)cc1)c1nc2cc3c(cc2s1)OCCO3` here?
A: The Potency was inconclusive [cytotoxic, single point].

Q: For `CN(C)CCNC(=O)c1cccc(-c2cnc3c(NC=O)cc(-c4cc(F)c(F)c(F)c4)cn23)c1`, which Potency is on record?
A: The Potency was active: 18.4 µM.

Q: Which Potency does the source give for `COc1cccc(-c2nc(C(=O)NCC3CCCO3)cc3c2[nH]c2ccccc23)c1` (stereo not given) here?
A: Its Potency is inconclusive [cytotoxic, single point].

Q: For `COc1ccc(S(=O)(=O)N2CCN(Cc3ccc(Cl)cc3)CC2)cc1`, which Potency is on record?
A: The Potency was “inactive”.

Q: Which Potency does the source give for `O=C(/C=C/c1cccnc1)/C=C/c1cccnc1` here?
A: Its Potency is active: 3.26 µM.

Q: For `COc1ccc(/C=C2\SC(N3CCc4ccccc4C3)=NC2=O)cc1`, which Potency is on record?
A: Its Potency is “inactive”.
